The source of these data is paper PMC4242493.

Some of the results follow. The list includes weakly bound sequences.

This test concerns the target MaxL homodimer (UniProt P61244). The test is described as follows: universal protein-binding microarray (PBM). The following applies: PBS-based mixture, 10 nM His-tagged protein dimer, 2% milk, 200 ng/uL BSA, 50 ng/uL salmon testes DNA, 0.02% TX-100; detection with Alexa 488 anti-His …; high values mean tight binding; most listed sequences are background and not binding sites; double strand, one strand shown.
Chain of UniProt P61244 (P61244 whole entry): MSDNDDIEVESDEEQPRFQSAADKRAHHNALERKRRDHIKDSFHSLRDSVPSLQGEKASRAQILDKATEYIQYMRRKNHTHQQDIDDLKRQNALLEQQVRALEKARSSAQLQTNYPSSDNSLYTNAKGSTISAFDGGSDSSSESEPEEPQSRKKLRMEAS
Turning to GAACACAA, the binding signal (normalized occupancy) turned out to be 0.0743. As to CCTGATTC, the binding signal (normalized occupancy) came to 0.0762.

On to AAACGCCC, for which the binding signal (normalized occupancy) turned out to be 0.0747.

In the case of AAGAACGA, the binding signal (normalized occupancy) was determined as 0.0709. On to CCATTTTA, for which the binding signal (normalized occupancy) was found to be 0.0772. Regarding AGTTCCAG, the binding signal (normalized occupancy) was 0.0709.

In the case of GATAAACA, the binding signal (normalized occupancy) was 0.0718.

Consider CTGTTCGA, for which the binding signal (normalized occupancy) came out at 0.0715.

In the case of TACATGCA, the binding signal (normalized occupancy) came to 0.0895. Regarding TATTGGGA, the binding signal (normalized occupancy) was found to be 0.0786. Take AAGGGGTG: the binding signal (normalized occupancy) came out at 0.0813. Take CGTGGATA: the binding signal (normalized occupancy) was 0.0917. On to CGCGATAG, for which the binding signal (normalized occupancy) stood at 0.0701.

Consider AAGATGTG, for which the binding signal (normalized occupancy) amounted to 0.0819. Take TATACATA: the binding signal (normalized occupancy) was found to be 0.0935. Regarding ACTAGGTA, the binding signal (normalized occupancy) worked out at 0.0763. On to CGAATTTA, for which the binding signal (normalized occupancy) is 0.0739. CCTTGCAC: the binding signal (normalized occupancy) was 0.0755. For CCACCTCA, the binding signal (normalized occupancy) came out at 0.0833.

With ATGTACGA, the binding signal (normalized occupancy) was 0.0873. As for TTTCCAAA, the binding signal (normalized occupancy) worked out at 0.077.

Regarding CATGCACG, the binding signal (normalized occupancy) was 0.101.

For AAATCGTA, the binding signal (normalized occupancy) was found to be 0.0748. To CGTCAAGC belongs 0.0703. To GGACGGGA belongs 0.0731. ACGCTCAC: the binding signal (normalized occupancy) amounted to 0.08. To GGGTTAAA belongs 0.0779; to ACAAGTCA, 0.0774. Turning to AATAGTCT, the binding signal (normalized occupancy) is 0.0758.

As for GGGTGTGA, the binding signal (normalized occupancy) was 0.0831. Consider ATGGCTTG, for which the binding signal (normalized occupancy) was 0.079. As for AGGTGAAT, the binding signal (normalized occupancy) was determined as 0.0784. Regarding CGGGGCCA, the binding signal (normalized occupancy) came to 0.0685. Regarding CACTATAC, the binding signal (normalized occupancy) amounted to 0.0789. In the case of CCACGCCG, the binding signal (normalized occupancy) turned out to be 0.0985. For the sequence ACATCCGT, the binding signal (normalized occupancy) amounted to 0.0774. Consider ACGGGGCT, for which the binding signal (normalized occupancy) came to 0.0777. In the case of AATGGCCC, the binding signal (normalized occupancy) was found to be 0.0752. With ATATATAT, the binding signal (normalized occupancy) was found to be 0.0877.

As to TGAGAACA, the binding signal (normalized occupancy) amounted to 0.0777. As for CGGAGGGC, the binding signal (normalized occupancy) is 0.0668. The figure for TCCCACCA is 0.0772; for TAGTCGAA it is 0.0737; for AACAGCTT it is 0.0725. Turning to CCTCAGAC, the binding signal (normalized occupancy) stood at 0.0778.

On to GCAGGGCA, for which the binding signal (normalized occupancy) came to 0.0689. For the sequence AATGGTAT, the binding signal (normalized occupancy) is 0.0816.

On to CACTCGCG, for which the binding signal (normalized occupancy) worked out at 0.0788. As to CTCAAGAC, the binding signal (normalized occupancy) came to 0.0714.

AGTATAAA: the binding signal (normalized occupancy) was found to be 0.0802. On to ATGTCCTC, for which the binding signal (normalized occupancy) came to 0.0844.

In the case of AACGTAGG, the binding signal (normalized occupancy) is 0.0742. ATTTGTTA: the binding signal (normalized occupancy) came to 0.0764. For the sequence CAACACTC, the binding signal (normalized occupancy) stood at 0.0756. For CCAACGTC, the binding signal (normalized occupancy) came out at 0.0727. For the sequence GTCTAATA, the binding signal (normalized occupancy) amounted to 0.0809. Regarding ATTCACCG, the binding signal (normalized occupancy) came out at 0.0732. ACTATAGT: the binding signal (normalized occupancy) was determined as 0.0757. With CTAGCGTA, the binding signal (normalized occupancy) was 0.0708. As to ACGACGCG, the binding signal (normalized occupancy) was found to be 0.0739. The figure for AAGTCGCA is 0.0768; for GTAACTGA it is 0.0702. In the case of ACAACCCA, the binding signal (normalized occupancy) is 0.0762.

In the case of AAGGAGAA, the binding signal (normalized occupancy) worked out at 0.0761. To CTTGGCCA belongs 0.0734; to CTCGTCAG, 0.0717; to AGACGACG, 0.0782. The figure for GCAATCCC is 0.0713. As for ACCCTAGC, the binding signal (normalized occupancy) amounted to 0.0745. Regarding AGTGGCGG, the binding signal (normalized occupancy) was determined as 0.0685. As to CGGGACCA, the binding signal (normalized occupancy) was found to be 0.0709.

For CGTTGGTC, the binding signal (normalized occupancy) is 0.0765. To CAACGCCC belongs 0.078. As for GTCTGTTA, the binding signal (normalized occupancy) was determined as 0.0766. As to GACCACTC, the binding signal (normalized occupancy) was 0.0788. As for CTTTCTTA, the binding signal (normalized occupancy) stood at 0.0794.

As to ACTAAACT, the binding signal (normalized occupancy) came out at 0.0746. In the case of GGACCGAA, the binding signal (normalized occupancy) came out at 0.0678.

Turning to GCATCCAA, the binding signal (normalized occupancy) was determined as 0.0768. With CACCCTCG, the binding signal (normalized occupancy) was found to be 0.0767.

With AAAATTCG, the binding signal (normalized occupancy) was found to be 0.0731. The figure for GTCGCGTA is 0.0716; for GGGTTGTA it is 0.0853; for CATATAAA it is 0.0803. The figure for CTGCTCAA is 0.0738; for ACTTGCAT it is 0.0774.

GGACGGCA: the binding signal (normalized occupancy) amounted to 0.0718. On to TCTGTCAA, for which the binding signal (normalized occupancy) was 0.0727.

AGTTCACC: the binding signal (normalized occupancy) was determined as 0.0724.

With AGAGTGGG, the binding signal (normalized occupancy) is 0.0749. For the sequence GCGATCGC, the binding signal (normalized occupancy) turned out to be 0.0825. In the case of TACAATGA, the binding signal (normalized occupancy) came to 0.0869. To AATGCCAC belongs 0.0851; to AGGTCCAA, 0.0786.

In the case of CCGGGCGC, the binding signal (normalized occupancy) is 0.0655. The figure for TGTAAGAA is 0.0734; for CAGCTACA it is 0.0736; for TAATCCGA it is 0.0761.

AGACATAT: the binding signal (normalized occupancy) came to 0.0822. Take TCGTGTAA: the binding signal (normalized occupancy) stood at 0.0836. Take CAAATGAA: the binding signal (normalized occupancy) was determined as 0.0748.

On to AATCTAAG, for which the binding signal (normalized occupancy) amounted to 0.0751.

AACTCAGT: the binding signal (normalized occupancy) amounted to 0.0711. In the case of ACCTCTCG, the binding signal (normalized occupancy) came to 0.0709. As for GTTGAAGA, the binding signal (normalized occupancy) came out at 0.082. As for CGACGTTC, the binding signal (normalized occupancy) was found to be 0.0713. Turning to AGACGTCC, the binding signal (normalized occupancy) worked out at 0.0732. For GCCTTCAC, the binding signal (normalized occupancy) is 0.0755.

For AGATATGG, the binding signal (normalized occupancy) worked out at 0.0794. As for GTCTGATA, the binding signal (normalized occupancy) was 0.0826. Consider CATTGGGA, for which the binding signal (normalized occupancy) came out at 0.0767. With ATTCAGGC, the binding signal (normalized occupancy) came to 0.0733. Turning to AAATTCCC, the binding signal (normalized occupancy) came to 0.075. Take GCTGAAGA: the binding signal (normalized occupancy) was found to be 0.0745. As for CCGGCTCA, the binding signal (normalized occupancy) stood at 0.0708.

With CATCTTTC, the binding signal (normalized occupancy) came out at 0.078.

For the sequence CGTTCATA, the binding signal (normalized occupancy) was 0.0823.

As for ACTAATAA, the binding signal (normalized occupancy) was found to be 0.0806. Consider ACGCACCA, for which the binding signal (normalized occupancy) came to 0.0832.

On to ATGGAACA, for which the binding signal (normalized occupancy) came to 0.0787. To ACGCTATG belongs 0.0818; to ACGATAGG, 0.085; to ATTCATTA, 0.0772. As to GTACATTA, the binding signal (normalized occupancy) stood at 0.0774. Turning to TCTCATCA, the binding signal (normalized occupancy) was 0.0771. As to CAACATGC, the binding signal (normalized occupancy) is 0.094. The figure for CGAGTGCA is 0.0777; for AAAAGACC it is 0.071; for AAGATGCC it is 0.0737. Take ACACCGGA: the binding signal (normalized occupancy) was found to be 0.0723. On to ACAAAGGG, for which the binding signal (normalized occupancy) amounted to 0.0742. As to AGCGCGAT, the binding signal (normalized occupancy) came to 0.0758. For the sequence AGGTGATC, the binding signal (normalized occupancy) was determined as 0.0832. Take ACCGACCT: the binding signal (normalized occupancy) was 0.0719. To TACTTGGA belongs 0.0749. To GACCAGGA belongs 0.0732; to ACACTATA, 0.0859.

In the case of TAGGCCTA, the binding signal (normalized occupancy) stood at 0.0738. With CTTTTATA, the binding signal (normalized occupancy) was 0.0741. Turning to ATCAGGTG, the binding signal (normalized occupancy) is 0.0937. On to AGACTAGG, for which the binding signal (normalized occupancy) is 0.0738.

As for CCGTTATA, the binding signal (normalized occupancy) came out at 0.0796. To AGCCTCCT belongs 0.0717; to ACAGAACG, 0.0749. To ACACAGCG belongs 0.075. To ACCCGAGC belongs 0.0647; to ACTCTGCG, 0.0691. On to CACCAATG, for which the binding signal (normalized occupancy) stood at 0.0783. AGAGTGAC: the binding signal (normalized occupancy) turned out to be 0.0747. With ATAGTTCC, the binding signal (normalized occupancy) was found to be 0.0748. Consider GCTGTCGA, for which the binding signal (normalized occupancy) was determined as 0.0755.

With AAAATGAC, the binding signal (normalized occupancy) is 0.0766.

With CTGGACCA, the binding signal (normalized occupancy) came out at 0.0745.

As for ATGCAGTG, the binding signal (normalized occupancy) stood at 0.0819.

Consider CACCCAGG, for which the binding signal (normalized occupancy) stood at 0.0759. CACCGCGG: the binding signal (normalized occupancy) stood at 0.0707.

For CGCGATTC, the binding signal (normalized occupancy) was found to be 0.081.

For the sequence GAGGATAA, the binding signal (normalized occupancy) is 0.0756. Take AAAAGCTC: the binding signal (normalized occupancy) amounted to 0.0684. In the case of GTTGGTTA, the binding signal (normalized occupancy) is 0.0809. For the sequence AAGGGGAC, the binding signal (normalized occupancy) stood at 0.0746. As for CGCGCCAG, the binding signal (normalized occupancy) amounted to 0.069. Regarding CATCCGCC, the binding signal (normalized occupancy) is 0.0779.

Take ACAGCAAG: the binding signal (normalized occupancy) was 0.0787. The figure for ATCTCTTA is 0.08. On to AAAGTTGT, for which the binding signal (normalized occupancy) is 0.0691. On to AAGTCCTA, for which the binding signal (normalized occupancy) is 0.0712. As to CGCCGCCA, the binding signal (normalized occupancy) came to 0.0713. Regarding CCGGAGTA, the binding signal (normalized occupancy) was determined as 0.0702. In the case of GGAGAGCC, the binding signal (normalized occupancy) was 0.0707. The figure for CGCGGACA is 0.0752; for CTAAGGAG it is 0.0656.
